# In all, about 310,000 compounds went through this assay and about 14,000 (4.5%) showed an effect of 50% or more. Effects have a minus sign here. The list shows a part of the results.
# Target: human ether-à-go-go-related gene (hERG) potassium channel (human, UniProt Q12809)
# Assay: primary screen, population patch clamp on CHO cells stably expressing hERG
# 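Note: peak tail current of the secondary pulse compared with the same well before compound.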
# Chain of human ether-à-go-go-related gene (hERG) potassium channel (Q12809 whole entry, looked up): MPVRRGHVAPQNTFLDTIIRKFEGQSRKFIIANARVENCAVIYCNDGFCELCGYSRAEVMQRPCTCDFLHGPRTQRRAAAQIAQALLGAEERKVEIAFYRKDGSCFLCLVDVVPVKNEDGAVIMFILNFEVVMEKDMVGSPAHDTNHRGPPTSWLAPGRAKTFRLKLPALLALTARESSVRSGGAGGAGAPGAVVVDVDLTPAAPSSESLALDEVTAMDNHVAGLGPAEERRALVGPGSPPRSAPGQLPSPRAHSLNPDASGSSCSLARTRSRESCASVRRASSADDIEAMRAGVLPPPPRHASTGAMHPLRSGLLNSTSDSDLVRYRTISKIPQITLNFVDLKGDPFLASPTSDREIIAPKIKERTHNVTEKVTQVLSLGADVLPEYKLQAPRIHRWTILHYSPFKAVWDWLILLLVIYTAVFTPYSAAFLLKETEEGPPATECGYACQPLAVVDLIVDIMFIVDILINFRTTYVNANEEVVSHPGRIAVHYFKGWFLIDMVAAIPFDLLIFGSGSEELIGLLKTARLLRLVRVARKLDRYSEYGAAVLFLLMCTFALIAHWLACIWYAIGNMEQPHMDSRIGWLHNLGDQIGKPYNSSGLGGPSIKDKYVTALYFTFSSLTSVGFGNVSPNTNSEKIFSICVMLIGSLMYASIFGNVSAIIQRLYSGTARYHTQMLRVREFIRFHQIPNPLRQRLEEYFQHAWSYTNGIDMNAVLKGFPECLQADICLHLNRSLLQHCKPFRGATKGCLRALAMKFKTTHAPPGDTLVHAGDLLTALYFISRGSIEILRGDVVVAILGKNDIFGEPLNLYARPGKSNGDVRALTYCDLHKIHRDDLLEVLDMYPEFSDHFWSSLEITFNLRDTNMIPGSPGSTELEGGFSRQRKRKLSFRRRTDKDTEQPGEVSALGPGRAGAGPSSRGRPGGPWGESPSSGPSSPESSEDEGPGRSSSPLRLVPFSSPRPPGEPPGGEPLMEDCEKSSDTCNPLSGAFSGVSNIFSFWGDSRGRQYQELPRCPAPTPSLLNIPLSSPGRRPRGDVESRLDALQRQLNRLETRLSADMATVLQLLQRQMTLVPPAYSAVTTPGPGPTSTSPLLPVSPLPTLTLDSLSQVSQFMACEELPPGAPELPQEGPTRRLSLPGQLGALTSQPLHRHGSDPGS
row,SMILES,"hERG current change (%, negative = inhibition) at 10uM"
1,CCOC(=O)CSc1nc(-c2ccccc2)cc(C(F)(F)F)n1,2.66%
2,O=C(Cn1cnc2ccccc2c1=O)c1ccc(Br)cc1,6.72%
3,COc1ccc(N=C2SC(C(=O)Nc3ccc(F)cc3)CC(=O)N2C)cc1 (stereo not shown),1.3%
4,O=C1CSc2ccc(S(=O)(=O)NCc3ccccc3)cc2N1,-5.59%
5,Cc1cc(Br)ccc1SCC(=O)OCC(=O)c1c(N)n(C)c(=O)n(C)c1=O,-36.6%
6,COc1ccc2c(c1OC)C(=O)OC2CC(=O)c1ccc2c(c1)OCO2 (stereo not shown),-1.72%
7,CCOC(=O)c1sc(N2N=C(C)C(N=Nc3cccc(C)c3)C2=O)nc1C (stereo not shown),-24.2%
8,CN(C(=O)c1ccccc1)C1c2c(ccc3ccccc23)OCC1CO (stereo not shown),6.62%
9,O=C(Nc1nnc(-c2ccccc2)o1)C1CCCCC1,9.78%
10,O=C(c1ccco1)N1CCN(c2nc(C3CC3)nc3c2nnn3Cc2ccccc2Cl)CC1,12.2%
11,COC(=O)Cc1[nH]nc2c1C(C1C=CCCC1)C(C#N)=C(N)O2 (stereo not shown),-7.32%
12,CCOC(=O)C(C)(C)Oc1ccc(Cl)cc1,9.36%
13,O=[N+]([O-])c1ccc(N2N=C(c3ccco3)CC2c2ccccc2)cc1 (stereo not shown),6.27%
14,O=C(Nc1cccc(S(=O)(=O)N2CCOCC2)c1)C(c1ccccc1)N1CCCCC1 (stereo not shown),-37.9%
15,COc1ccc(CC(=O)Nc2cccc(C(=O)O)c2C)cc1,11.3%
16,Cc1nc(S/C(=C/c2ccc(-c3ccc(C(=O)O)cc3)o2)C(=O)O)n[nH]1,-11.4%
17,Cc1cc(NC(=O)Cc2ccccc2[N+](=O)[O-])no1,3.29%
18,O=C(Nc1ccccc1C(=O)O)c1ccc(Cl)c(S(=O)(=O)N2CCOCC2)c1,8.11%
19,Cn1c(C(C#N)C(=O)Cc2cccc3ccccc23)nc2ccccc21 (stereo not shown),5.85%
20,CC(CCc1ccccc1)NC(=O)CNC(=O)c1cccs1 (stereo not shown),-5.72%
21,O=S(=O)(NCc1ccncc1)c1ccc(Br)s1,0.699%
22,N#C/C(=C\c1ccc(Cl)c([N+](=O)[O-])c1)c1ccccn1,27%
23,CC(=O)N1N=C(N)SC1c1cccc([N+](=O)[O-])c1 (stereo not shown),-6.38%
24,COc1ccc([N+](=O)[O-])cc1NC(=O)c1ccc(N(Cc2ccccc2Cl)S(C)(=O)=O)cc1,-10.2%
25,S=c1[nH]nc(-c2cc(-c3ccccc3)n[nH]2)n1/N=C/c1c(Cl)cccc1Cl,28.2%
26,COc1ccc(CNc2nc(-c3cccnc3)nn2C(=O)c2cccs2)cc1,1.11%
27,COc1ccc(Cl)cc1NC(=O)Cn1c(NCCO)nc2ccccc21,21.4%
28,O=C(NCc1cccnc1)/C(=C/c1ccc(-c2cccc(Cl)c2)o1)S(=O)(=O)c1ccccc1,-26.2%

row,SMILES,"hERG current change (%, negative = inhibition) at 10uM"
1,O=C(NCc1ccc2c(c1)OCO2)C1CC(=O)N(CCc2ccccc2)C1 (stereo not shown),3.54%
2,COc1ccc(CCC(=O)Nc2ccc(N3CCOCC3)cc2)cc1,-12.9%
3,CCOc1ccc2nc(SCC(=O)N3c4ccccc4Sc4ccccc43)sc2c1,13.6%
4,C=CCn1c(CNC(=O)c2ccco2)nnc1SCC(=O)c1ccc(OC)cc1,-18.3%
5,CCC(C)NC(=O)N[C@@H](CCSC)C(=O)OC (stereo partly shown),-0.195%
6,C[C@H](N)c1nnc(SCC(N)=O)o1.Cl,-7.03%
7,C=CCn1c(SCC(=O)c2ccc(OC)cc2)nnc1-c1cc2cccc(OC)c2o1,25.8%
8,COc1ccc(NC(=O)CSc2nnc(-c3cccs3)n2Cc2ccco2)cc1OC,-60.6%
9,CC(C(=O)NC(=O)NC1CCCCC1)N1CCN(c2ccccn2)CC1 (stereo not shown),-15.9%
10,NC(=O)COc1ccc2oc(=O)cc(-c3cc4ccccc4o3)c2c1,7.27%
11,CC1CCc2sc(C(=O)NC(C)C3CCCO3)cc2C1 (stereo not shown),-15.7%
12,CSc1ncc(CN2CCN(CC=C(C)C)C(CCO)C2)cn1 (stereo not shown),4.77%
13,C=CCn1c(N)cc(=O)nc1SCC(=O)Nc1ccc(C(=O)OCC)cc1,29.7%
14,CC(C)O.COC(=O)Nc1ccc2c(c1)N(C(=O)CCN1CCN3CCCC3C1)c1ccccc1CC2.Cl.O (stereo not shown),1.43%
15,CC(=O)NC1C(=O)N=C(SCC(=O)NCc2ccccc2)NC1=O (stereo not shown),-21.6%
16,N=c1c(C(=O)NC2CCCC2)cc2c(=O)n3ccccc3nc2n1Cc1ccccc1,-78.6%
17,CC(=O)c1cccc(N(CC(=O)N2CCCC2)S(C)(=O)=O)c1,2.47%
18,COc1ccc(C2c3c(n[nH]c3C)CC(C)(O)C2C(C)=O)cc1OC (stereo not shown),-7.33%
19,CC(C)(C)OC(=O)NCCCCCNC(=O)c1nc[nH]c1C(=O)NCc1ccccc1,-35.9%
20,COc1cccc(NC(=O)[C@H](Cc2ccccc2)NC(=O)[C@@H]2Cc3ccccc3CN2)c1,-2.99%
21,COc1ccc(N(CCCN2C(=O)c3cccc4cccc(c34)C2=O)C(=O)c2cccs2)cc1,10.9%
22,COc1ccccc1NC(=S)N(CCN1CCCCCC1)Cc1cccs1,-55.3%
23,O=C(Nc1ccnn1C1CCN(Cc2ccn[nH]2)CC1)c1ccccc1,-18.2%
24,S=C(NCc1ccccn1)Nc1ccc(Cl)cc1,7.71%
25,CCOc1ccc(C(O)c2nccn2Cc2ccccc2)cc1 (stereo not shown),7.58%
26,O=C(Nc1cccc(-c2nnc(-c3ccccc3)o2)c1)C1CCCCC1,2.83%
27,Cc1cc(N2C(=O)C(O)=C(C(=O)c3ccco3)C2c2cccc(Oc3ccccc3)c2)no1 (stereo not shown),22.5%
